# Assay results taken from PubChem BioAssay AID1479 (National Center for Advancing Translational Sciences (NCATS), 2009).
# Screen size: about 280,000 compounds; about 820 (0.29%) were called active. Inconclusive results (about 1%) are left out. The call rests on the fitted dose curve; in most records, active means well fitted curve in either direction with a large enough effect; inconclusive means small, poorly fitted or top-dose-only effect; inactive means flat fitted curve, though single readings scatter. The entries are a selection whose mix differs from that of the whole data set. Some structures have more than one record in an assay (separate samples or runs), and their calls can disagree.
# Experiment: Total Fluorescence Counterscreen for Inhibitors of the Interaction of Thyroid Hormone Receptor and Steroid Receptor Coregulator 2
# Details: TRb/SRC2 Texas Red total fluorescence interference; series mostly up to 106 µM; fluorescence change, negative = quenching: at the top concentration
# Description: NIH Molecular Libraries Probe Production Network [MLPCN]
# NIH Chemical Genomics Center [NCGC]
# Assay Provider: R. Kip Guy, St. Jude Children's Research Hospital
# Thyroid receptor (TR) regulates many homeostatic processes including basal metabolism, cardiovascular function, body weight, and lipid trafficking. TR modulators are potential therapeutics for obesity and hyperlipidemias but current thyroid analogs have undesirable side effects, particularly cardiac stimulation. To identify inhibitors that specifically prevent the interaction of TR with the steroid receptor […] 2 (SRC2), a fluorescence polarization assay was screened. This assay detects interaction of the ligand-binding domain of human TRb with a Texas Red labeled SRC2 peptide, corresponding to a 20 amino acid region of the nuclear receptor interaction domain (Arnold et al., 2006). Total fluorescence (555 nm excitation and 632 nm emission) was measured to identify potential fluorescent and light absorbing compounds. Such compounds may be artifacts that interfere with the fluorescence polarization assay.
# Arnold, L. A.; Estebanez-Perpina, E.; Togashi, M.; Shelat, A.; Ocasio, C. A.; McReynolds, A. C.; Nguyen, P.; Baxter, J. D.; Fletterick, R. J.; Webb, P.; Guy, R. K. A high-throughput screening method to identify small molecule inhibitors of thyroid hormone receptor coactivator binding. Sci STKE 2006, p 13.
# NCGC Assay Protocol Summary:
# For screening, 5 uL/well 0.6 uM TRb and 20 nM SRC2 Texas Red in protein buffer (20mM Tris hydrochloride, 100mM NaCl, 10% glycerol, 1mM EDTA, 0.01% NP-40, 1mM DTT, 1uM T3 and 5% DMSO) was dispensed into black solid 1536-well plates (Grenier) using a solenoid-based dispenser. Following transfer of 23 nL compound or DMSO vehicle by a pin tool, the plates were centrifuged 15 s at 1000 RPM and incubated 5 hr at ambient temperature. The plates were read by an Envision (Perkin Elmer) to detect fluorescence polarization of SRC2 Texas Red (555 nm excitation and 632 nm emission). Data were normalized to unbound (all components except TRb) and bound SRC2 Texas Red controls. Total fluorescence (TF) was calculated as follows: TF = S + 2P where S and P are fluorescence readings in the parallel and perpendicular channels, respectively.
# Keywords: NIH Roadmap, MLPCN, MLI, MLSMR, qHTS, NCGC, qHTS, thyroid hormone receptor, steroid receptor coactivator, fluorescence polarization
# On the % scale 0 is the no-effect control and ±100 the full control effect; potency means the concentration at half of the fitted maximal effect; tags describe the fitted curve by direction and shape or compound fluorescence and quenching.
SMILES,Potency,"fluorescence change, negative = quenching"
COc1ccc(C(=O)N2CCCC2=O)cc1,inactive,
C=CCN1CCc2cccc3c2C1Cc1ccc(O)c(O)c1-3 (configuration not stated),,inactive: -0.538%
CN1C(=O)CCS(=O)(=O)[C@H]1c1ccc(Cl)cc1,,inactive: -1.64%
CC(C)[C@@]1(NC(=O)[C@@H]2C[C@@H]3c4cccc5[nH]cc(c45)C[C@H]3N(C)C2)O[C@@]2(O)[C@@H]3CCCN3C(=O)[C@H](Cc3ccccc3)N2C1=O,inactive,
CC(C)[C@@]1(NC(=O)[C@@H]2C[C@H]3c4cccc5[nH]cc(c45)C[C@@H]3N(C)C2)O[C@@]2(O)[C@H]3CCCN3C(=O)[C@H](Cc3ccccc3)N2C1=O,inactive,
Cc1ccc(OCC(=O)Nc2ccc(Cl)cc2C(=O)c2ccccc2)cc1,,inactive: -3.05%
CC(C)(O)C(Cl)(Cl)Cl,,inactive: -0.616%
[O]=[Cr](=[O])([OH])[O][Cr](=[O])(=[O])[OH],,inactive: -5.76%
C#CC1(O)CCC2C3CCC4=CC(=O)CCC4(C)C3CCC21C (configuration not stated),,inactive: 0.312%
CC1CCC2(OC1)OC1CC3C4CC[C@@H]5CC(O)CC[C@@]5(C)C4CC(=O)[C@]3(C)C1C2C (some centres not stated),,inactive: -3.08%
CN(C)C1C(=O)C(C(N)=O)=C(O)[C@@]2(O)C(=O)C3=C(O)c4c(O)ccc(Cl)c4[C@](C)(O)C3CC12 (some centres not stated),,inactive: -4.93%
CCCN(CCC)CCc1c[nH]c2ccc(C(N)=O)cc12,,inactive: -0.378%
CN(C)C1C(=O)C(C(N)=O)=C(O)[C@@]2(O)C(=O)C3=C(O)c4c(O)cccc4[C@@](C)(O)C3C[C@@H]12 (some centres not stated),,inactive: -6.81%
CN1Cc2ccccc2[C@@H]2c3cccc4[nH]cc(c34)C[C@H]21,,inactive: 23.3%
CNC(=O)Oc1ccc2c(c1)[C@@]1(C)CCN(C)C1N2C (some centres not stated),inactive,
CC(C)N(CCC(C(N)=O)(c1ccccc1)c1ccccn1)C(C)C (configuration not stated),inactive,
C[C@H]1CCC/C=C/C2C[C@H](O)CC2[C@H](O)/C=C/C(=O)O1 (some centres not stated),,inactive: -4.61%
C/C(O)=C(/C#N)C(=O)Nc1cc(Br)ccc1Br,,inactive: -2.55%
O=C(Cc1cc(=O)[nH][nH]1)N/N=C/c1ccccc1Cl,active: 1410 µM [quencher],

SMILES,Potency,"fluorescence change, negative = quenching"
CNC(=O)Oc1ccc2c(c1)C1(C)CCN(C)C1N2C (configuration not stated),,inactive: -2.37%
C#C[C@]1(O)CC[C@H]2[C@@H]3CCC4=CC(=O)CC[C@]4(C)[C@H]3CC[C@@]21C,,inactive: -2.89%
CC[C@H](CO)Nc1nc(NCc2ccccc2)c2ncn(C(C)C)c2n1,inactive,
CN(C)C1C(=O)C(C(N)=O)C(=O)C2(O)C(=O)C3C(=O)c4c(O)cccc4C(C)(O)C3C(O)C12 (configuration not stated),active: 28.2 µM [quencher],
C[N+]1(C)CCC(OC(=O)C(c2ccccc2)c2ccccc2)CC1,inactive,
CN(C)C1C(=O)C(C(N)=O)=C(O)[C@@]2(O)C(=O)C3=C(O)c4c(O)cccc4[C@](C)(O)C3C(O)C12 (some centres not stated),,inactive: -16.6%
O=C1NC(=O)N(c2ccccc2)C(=O)/C1=C\c1ccc([N+](=O)[O-])s1,,inactive: -2.52%
ClC1=C(Cl)C(Cl)(C2(Cl)C(Cl)=C(Cl)C(Cl)=C2Cl)C(Cl)=C1Cl,active: 31.6 µM [quencher],
C[C@H]1CCC/C=C/C2C[C@H](O)C[C@H]2[C@H](O)/C=C/C(=O)O1 (some centres not stated),inactive,
CC(C)NC[C@@H](O)COc1cccc2[nH]ccc12,,inactive: -2.61%
CC1CCC/C=C/C2CC(O)CC2C(O)/C=C/C(=O)O1 (configuration not stated),,inactive: -0.057%
COc1ccc(N2C(=O)NC(=O)/C(=C/c3ccc([N+](=O)[O-])s3)C2=O)cc1,,inactive: 1.24%
C[C@H]1CCCC=CC2C[C@H](O)C[C@@H]2[C@H](O)/C=C\C(=O)O1 (some centres not stated),,inactive: -1.31%
N[C@H](CCCCCP(=O)(O)O)C(=O)O,inactive,
COCC(C)N(C(=O)CCl)c1c(C)csc1C (configuration not stated),,inactive: -0.785% [at 201 µM]
CCCN1CCCC2Cc3[nH]ncc3CC21 (configuration not stated),,inactive: -5.84%
CC(C)(C)[C@]1(O)C[C@@H]2OC(=O)CC23C(=O)O[C@@H]2OC(=O)[C@H](O)C231 (some centres not stated),,inactive: -0.729%
CC(C)[C@@]1(NC(=O)[C@H]2CC3c4cccc5[nH]cc(c45)C[C@H]3N(C)C2)O[C@@]2(O)C3CCCN3C(=O)[C@@H](Cc3ccccc3)N2C1=O (some centres not stated),inactive,
NC[C@@H](CC(=O)O)c1ccc(Cl)cc1,,inactive: 0.285%

SMILES,Potency,"fluorescence change, negative = quenching"
CC[C@@H](CO)NC(=O)[C@H]1C=C2c3cccc4c3c(cn4C)C[C@H]2N(C)C1,inactive,
CCCN1CCC[C@@H]2Cc3[nH]ncc3C[C@H]21,inactive,
Nc1nc2ccc(Cl)cc2c2nc(-c3ccco3)nn12,inactive,
c1cncc(C2=NCCC2)c1,,inactive: -0.707%
CC(=O)OC1C[C@H](O[C@@H]2C(O)C[C@H](O[C@@H]3C(O)C[C@@H](OC4CC[C@]5(C)C(CCC6C5CC(O)[C@@]5(C)C(C7=CC(=O)OC7)CC[C@@]65O)C4)OC3C)OC2C)O[C@H](C)[C@H]1O[C@H]1OC(CO)C(O)C(O)C1O (some centres not stated),,inactive: -1.81%
CC(C)(C)[C@]1(O)C[C@@H]2OC(=O)C[C@@]23C(=O)O[C@@H]2OC(=O)[C@H](O)[C@]213,inactive,
O=c1cc(-c2ccc(O)c(O)c2)oc2cc(O)cc(O)c12,inactive,
C[N+]1=C(/C=C/Nc2ccccc2)C(C)(C)c2ccccc21,,inactive: -3.96%
CC(C)N(CC[C@@](C(N)=O)(c1ccccc1)c1ccccn1)C(C)C,,inactive: -0.679%
FC(F)(F)c1cccc(N2CCNCC2)c1,inactive,
COC[C@H]1OC(=O)c2coc3c2[C@@]1(C)C1=C(C3=O)[C@H]2CCC(=O)[C@@]2(C)C[C@H]1OC(C)=O,,inactive: 23.9%
CN(C)[C@@H]1C(=O)C(C(N)=O)=C(O)[C@]2(O)C(=O)C3=C(O)c4c(O)cccc4[C@@](C)(O)[C@H]3[C@H](O)[C@@H]12,,inactive: -7.77% [at 53 µM]
CN(C)[C@@H]1C(=O)C(C(N)=O)=C(O)[C@@]2(O)C(=O)C3=C(O)c4c(O)cccc4[C@@](C)(O)[C@H]3[C@H](O)[C@@H]12,inactive,
CN1C(=O)CCS(=O)(=O)C1c1ccc(Cl)cc1 (configuration not stated),inactive,
CCC1/C=C/C=CCC(C)C(O)[C@@](C)(O)C(=O)C(C)C(O)C(C)C(=O)C(C)C(O)C(C)C=CC(=O)O[C@H]2C(C)C(CC1)O[C@]1(CCC(C)C(CC(C)O)O1)C2C (some centres not stated),,inactive: -1.66%
CC(C)NC[C@H](O)COc1cccc2[nH]ccc12,inactive,
NCC(CP(=O)(O)O)c1ccc(Cl)cc1 (configuration not stated),,inactive: -2.88%
O=c1c(O)c(-c2ccc(O)c(O)c2)oc2cc(O)cc(O)c12,inactive,
c1ccc(C2CC2)c(OCC2=NCCN2)c1,inactive,
